Test results taken from article PMC9911399, “Two distinct binding modes provide the RNA-binding protein RbFox with extraordinary sequence specificity”.
Numbering of substitutions follows the chain as printed; changes in the protein carry UniProt numbers. Some of the results follow.

T1: RBFOX1 RRM RbFoxmut (Fox-RRM*) (Homo sapiens, UniProt Q9NWB1 109-208, R118D;E147R;N151S;E152T)
T1 sequence: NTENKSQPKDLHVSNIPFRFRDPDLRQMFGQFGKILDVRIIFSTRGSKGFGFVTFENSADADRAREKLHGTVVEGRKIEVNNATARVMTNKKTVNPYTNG

B1: ACAGAAC (DNA:RNA)
RNA: GGGAGACCGGAAUUCAGAUUGUCCACAGAACUUAAAUCCCGUCGUAGCCACCA
DNA 1: CAATCTGAATTCCGGTCTCCC
DNA 2: TGGTGGCTACGACGGGATT
B2: AGAAUGC (DNA:RNA)
RNA: B1 RNA with C26G, G28A, A29U, A30G
DNA 1: CAATCTGAATTCCGGTCTCCC
DNA 2: TGGTGGCTACGACGGGATT
B3: UCUUAUU (DNA:RNA)
RNA: B1 RNA with A25U, A27U, G28U, A30U, C31U
DNA 1: CAATCTGAATTCCGGTCTCCC
DNA 2: TGGTGGCTACGACGGGATT
B4: UAUAAUU (DNA:RNA)
RNA: B1 RNA with A25U, C26A, A27U, G28A, A30U, C31U
DNA 1: CAATCTGAATTCCGGTCTCCC
DNA 2: TGGTGGCTACGACGGGATT
B5: UGACCCA (DNA:RNA)
RNA: B1 RNA with A25U, C26G, G28C, A29C, A30C, C31A
DNA 1: CAATCTGAATTCCGGTCTCCC
DNA 2: TGGTGGCTACGACGGGATT
B6: AAAACAG (DNA:RNA)
RNA: B1 RNA with C26A, G28A, A29C, C31G
DNA 1: CAATCTGAATTCCGGTCTCCC
DNA 2: TGGTGGCTACGACGGGATT
B7: GUUCCCC (DNA:RNA)
RNA: B1 RNA with A25G, C26U, A27U, G28C, A29C, A30C
DNA 1: CAATCTGAATTCCGGTCTCCC
DNA 2: TGGTGGCTACGACGGGATT
B8: CAGAAGA (DNA:RNA)
RNA: B1 RNA with A25C, C26A, A27G, G28A, A30G, C31A
DNA 1: CAATCTGAATTCCGGTCTCCC
DNA 2: TGGTGGCTACGACGGGATT
B9: AUGACCG (DNA:RNA)
RNA: B1 RNA with C26U, A27G, G28A, A29C, A30C, C31G
DNA 1: CAATCTGAATTCCGGTCTCCC
DNA 2: TGGTGGCTACGACGGGATT
B10: CCCAUUG (DNA:RNA)
RNA: B1 RNA with A25C, A27C, G28A, A29U, A30U, C31G
DNA 1: CAATCTGAATTCCGGTCTCCC
DNA 2: TGGTGGCTACGACGGGATT
B11: UAUCGAA (DNA:RNA)
RNA: B1 RNA with A25U, C26A, A27U, G28C, A29G, C31A
DNA 1: CAATCTGAATTCCGGTCTCCC
DNA 2: TGGTGGCTACGACGGGATT
B12: GCGGCCG (DNA:RNA)
RNA: B1 RNA with A25G, A27G, A29C, A30C, C31G
DNA 1: CAATCTGAATTCCGGTCTCCC
DNA 2: TGGTGGCTACGACGGGATT
B13: CAUUCCA (DNA:RNA)
RNA: GGGAGACCGGAAUUCAGAUUGUCCCAUUCCAUUAAAUCCCGUCGUAGCCACCA
DNA 1: CAATCTGAATTCCGGTCTCCC
DNA 2: TGGTGGCTACGACGGGATT
B14: GGCCAAA (DNA:RNA)
RNA: B1 RNA with A25G, C26G, A27C, G28C, C31A
DNA 1: CAATCTGAATTCCGGTCTCCC
DNA 2: TGGTGGCTACGACGGGATT
B15: AACGACA (DNA:RNA)
RNA: B1 RNA with C26A, A27C, A30C, C31A
DNA 1: CAATCTGAATTCCGGTCTCCC
DNA 2: TGGTGGCTACGACGGGATT
B16: GAAGGCG (DNA:RNA)
RNA: B1 RNA with A25G, C26A, A29G, A30C, C31G
DNA 1: CAATCTGAATTCCGGTCTCCC
DNA 2: TGGTGGCTACGACGGGATT
B17: UCAUCAU (DNA:RNA)
RNA: B1 RNA with A25U, G28U, A29C, C31U
DNA 1: CAATCTGAATTCCGGTCTCCC
DNA 2: TGGTGGCTACGACGGGATT
B18: AGCGGGU (DNA:RNA)
RNA: B1 RNA with C26G, A27C, A29G, A30G, C31U
DNA 1: CAATCTGAATTCCGGTCTCCC
DNA 2: TGGTGGCTACGACGGGATT
B19: CCACACA (DNA:RNA)
RNA: B1 RNA with A25C, G28C, A30C, C31A
DNA 1: CAATCTGAATTCCGGTCTCCC
DNA 2: TGGTGGCTACGACGGGATT
B20: ACGGGGA (DNA:RNA)
RNA: B1 RNA with A27G, A29G, A30G, C31A
DNA 1: CAATCTGAATTCCGGTCTCCC
DNA 2: TGGTGGCTACGACGGGATT

These binders were tested against T1, RBFOX1 RRM RbFoxmut (Fox-RRM*) (assay: EMSA; HiTS-Eq, 1 nM pool, 10 min; buffer printed only for the single-RNA assays: 10 mM Tris pH 7.5, 150 mM NaCl, 3.4 mM EDTA, 0.001% NP-40, 30 C). Details: tags: His6 N-terminal (pET28a); label: 5' 32P.
In short: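 A pool of RNA with 7 randomized nucleotides, 5′-radiolabelled and with DNA-annealed flanks, was equilibrated at 1 nM for 10 min in 50 µL with purified RbFox RRM, wild type or mutant, across increasing protein concentrations. Free RNA was separated by 8% native PAGE, excised, reverse-transcribed, barcoded by PCR and sequenced. Relative association constants were obtained from read-count changes of each RNA species versus the control reaction and normalised to the cognate motif.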

Binder | binding signal
B1 | 0.0763 KA relative to UGCAUGU
B2 | 0.408 KA relative to UGCAUGU
B3 | 0.109 KA relative to UGCAUGU
B4 | 0.0529 KA relative to UGCAUGU
B5 | 0.0589 KA relative to UGCAUGU
B6 | 0.0679 KA relative to UGCAUGU
B7 | 0.0749 KA relative to UGCAUGU
B8 | 0.093 KA relative to UGCAUGU
B9 | 0.119 KA relative to UGCAUGU
B10 | 0.0949 KA relative to UGCAUGU
B11 | 0.0952 KA relative to UGCAUGU
B12 | 0.133 KA relative to UGCAUGU
B13 | 0.0839 KA relative to UGCAUGU
B14 | 0.0651 KA relative to UGCAUGU
B15 | 0.0641 KA relative to UGCAUGU
B16 | 0.0988 KA relative to UGCAUGU
B17 | 0.0991 KA relative to UGCAUGU
B18 | 0.136 KA relative to UGCAUGU
B19 | 0.117 KA relative to UGCAUGU
B20 | 0.0851 KA relative to UGCAUGU
